# Measured values: publication doi:10.1101/2025.02.07.636106
# Legend:
# [1] = biological target: Eukaryotic translation initiation factor 3 subunit H (UniProt O15372); test: cross-linking mass spectrometry
# [2] = biological target: T1, Golgi apparatus protein 1 (UniProt Q92896); test: cross-link between two proteins; cross-linking mass spectrometry
# T1 sequence: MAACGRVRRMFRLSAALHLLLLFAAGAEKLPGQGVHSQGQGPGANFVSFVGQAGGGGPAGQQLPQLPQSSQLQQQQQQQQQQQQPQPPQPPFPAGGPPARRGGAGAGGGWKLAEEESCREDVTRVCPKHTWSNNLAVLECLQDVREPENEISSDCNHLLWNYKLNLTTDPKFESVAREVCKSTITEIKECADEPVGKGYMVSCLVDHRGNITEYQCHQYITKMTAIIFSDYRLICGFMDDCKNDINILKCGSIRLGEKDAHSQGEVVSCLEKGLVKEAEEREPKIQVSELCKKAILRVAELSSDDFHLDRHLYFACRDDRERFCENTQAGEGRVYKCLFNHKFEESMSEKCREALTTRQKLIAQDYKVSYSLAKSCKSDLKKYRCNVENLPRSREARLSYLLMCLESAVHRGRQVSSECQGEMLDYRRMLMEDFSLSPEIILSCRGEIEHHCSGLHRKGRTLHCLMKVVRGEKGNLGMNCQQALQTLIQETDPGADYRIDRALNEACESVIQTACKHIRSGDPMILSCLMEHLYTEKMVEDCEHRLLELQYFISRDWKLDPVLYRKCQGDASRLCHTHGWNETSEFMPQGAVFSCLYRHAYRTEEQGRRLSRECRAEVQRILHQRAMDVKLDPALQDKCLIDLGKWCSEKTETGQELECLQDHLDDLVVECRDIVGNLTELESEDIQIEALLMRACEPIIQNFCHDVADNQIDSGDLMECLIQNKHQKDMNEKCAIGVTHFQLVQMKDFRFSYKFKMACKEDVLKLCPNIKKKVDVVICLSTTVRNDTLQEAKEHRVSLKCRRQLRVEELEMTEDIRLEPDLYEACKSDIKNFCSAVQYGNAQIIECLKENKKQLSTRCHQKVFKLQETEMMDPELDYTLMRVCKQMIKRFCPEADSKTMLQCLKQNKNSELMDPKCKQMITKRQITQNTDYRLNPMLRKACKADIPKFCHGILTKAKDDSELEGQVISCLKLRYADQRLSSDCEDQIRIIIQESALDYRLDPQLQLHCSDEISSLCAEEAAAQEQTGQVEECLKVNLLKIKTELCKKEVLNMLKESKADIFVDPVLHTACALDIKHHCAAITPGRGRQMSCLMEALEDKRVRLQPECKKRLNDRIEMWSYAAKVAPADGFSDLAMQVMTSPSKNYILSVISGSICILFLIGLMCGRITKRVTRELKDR
# [3] = biological target: Kinesin-like protein KIF21A (UniProt Q7Z4S6); test: as above
# [4] = biological target: T2, Leucine-rich repeat-containing protein 59 (UniProt Q96AG4); test: as above
# T2 sequence: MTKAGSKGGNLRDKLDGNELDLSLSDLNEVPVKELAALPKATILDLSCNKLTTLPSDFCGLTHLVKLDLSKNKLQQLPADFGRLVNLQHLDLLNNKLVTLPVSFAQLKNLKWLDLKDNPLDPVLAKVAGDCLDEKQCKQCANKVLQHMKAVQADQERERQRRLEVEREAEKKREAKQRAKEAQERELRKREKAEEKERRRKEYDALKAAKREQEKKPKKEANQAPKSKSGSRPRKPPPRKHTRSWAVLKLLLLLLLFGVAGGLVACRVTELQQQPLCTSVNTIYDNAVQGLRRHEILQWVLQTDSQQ
# [5] = biological target: Proteasome subunit alpha type-3 (UniProt P25788); test: cross-link between two proteins; co-fractionation; cross-linking mass spectrometry
# [6] = biological target: T3, T-complex protein 1 subunit gamma (UniProt P49368); test: as above
# T3 sequence: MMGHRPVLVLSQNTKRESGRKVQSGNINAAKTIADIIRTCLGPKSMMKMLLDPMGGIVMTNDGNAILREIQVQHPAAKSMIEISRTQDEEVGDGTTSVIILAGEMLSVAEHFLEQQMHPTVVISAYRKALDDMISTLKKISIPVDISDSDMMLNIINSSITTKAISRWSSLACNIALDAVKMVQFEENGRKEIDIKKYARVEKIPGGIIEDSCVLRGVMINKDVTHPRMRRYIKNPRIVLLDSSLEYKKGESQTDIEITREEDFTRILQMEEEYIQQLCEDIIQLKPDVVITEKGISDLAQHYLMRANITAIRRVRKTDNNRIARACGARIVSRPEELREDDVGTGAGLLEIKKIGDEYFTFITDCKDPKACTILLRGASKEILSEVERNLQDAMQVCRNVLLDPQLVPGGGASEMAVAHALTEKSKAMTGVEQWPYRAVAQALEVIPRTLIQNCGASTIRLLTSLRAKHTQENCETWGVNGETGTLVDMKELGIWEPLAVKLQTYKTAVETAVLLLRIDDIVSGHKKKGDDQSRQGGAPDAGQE
substance,measurement,setting,value
Eukaryotic translation initiation factor 3 subunit F,listed as a hit,[1],yes
Albumin,listed as a hit,[2],yes
26S proteasome non-ATPase regulatory subunit 3,listed as a hit,[3],yes
Eukaryotic translation initiation factor 3 subunit A,listed as a hit,[4],yes
"ATP synthase F(1) complex subunit beta, mitochondrial",listed as a hit,[5],yes
T-complex protein 1 subunit epsilon,listed as a hit,[6],yes
